# Some of the results follow.
# B1: Pp2-A2 (Arabidopsis thaliana), Q07098 (protein)
# chain: MPSNGDLDRQIEQLMECKPLSEADVRTLCDQARAILVEEYNVQPVKCPVTVCGDIHGQFYDLIELFRIGGNAPDTNYLFMGDYVDRGYYSVETVSLLVALKVRYRDRLTILRGNHESRQITQVYGFYDECLRKYGNANVWKYFTDLFDYLPLTALIESQVFCLHGGLSPSLDTLDNIRSLDRIQEVPHEGPMCDLLWSDPDDRCGWGISPRGAGYTFGQDIAAQFNHNNGLSLISRAHQLVMEGFNWCQDKNVVTVFSAPNYCYRCGNMAAILEIGENMEQNFLQFDPAPRQVEPDTTRKTPDYFL
# Legend:
# Test in all cases: glycan array binding signal (z-score within array); higher = stronger binding
# Details in all cases: glycan notation: IUPAC condensed, linker removed
# [1] = target: Fuc(a1-2)[GalNAc(a1-3)]Gal(b1-4)GlcNAc(b1-3)Gal(b1-4)GlcNAc
# Summary of the method: (§1)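 The Consortium for Functional Glycomics database supplied 3228 glycan arrays, of which those lacking an available protein sequence were dropped. The binding signal, a within-array Z-score, was averaged across arrays of the same protein sequence and across linkers. Negative scores can be read as non-binding.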
# [2] = target: Fuc(a1-2)[GalNAc(a1-3)]Gal(b1-4)GlcNAc(b1-3)Gal(b1-4)GlcNAc(b1-3)Gal(b1-4)GlcNAc
# Summary of the method: as §1
# [3] = target: Fuc(a1-2)[GalNAc(a1-3)]Gal(b1-4)[Fuc(a1-3)]GlcNAc
# Summary of the method: as §1
# [4] = target: Fuc(a1-2)[GalNAc(a1-4)]Gal(b1-4)GlcNAc
# Summary of the method: as §1
# [5] = target: Fuc(a1-2)[GalNAc(b1-3)]Gal
# Summary of the method: as §1
# [6] = target: Fuc(a1-3)GlcNAc
# Summary of the method: as §1
# [7] = target: Fuc(a1-3)[Gal(b1-4)]Glc6S
# Summary of the method: as §1
# [8] = target: Fuc(a1-3)[Gal(b1-4)]GlcNAc
# Summary of the method: as §1
# [9] = target: Fuc(a1-3)[Gal(b1-4)]GlcNAc(b1-2)Man(a1-3)[Fuc(a1-3)[Gal(b1-4)]GlcNAc(b1-2)Man(a1-6)]Man(b1-4)GlcNAc(b1-4)GlcNAc
# Summary of the method: as §1
# [10] = target: Fuc(a1-3)[Gal(b1-4)]GlcNAc(b1-3)Gal(b1-3)[Fuc(a1-4)]GlcNAc
# Summary of the method: as §1
# [11] = target: Fuc(a1-3)[Gal(b1-4)]GlcNAc(b1-3)GalNAc
# Summary of the method: as §1
# [12] = target: Fuc(a1-3)[Gal(b1-4)]GlcNAc(b1-4)Gal(b1-4)[Fuc(a1-3)]GlcNAc
# Summary of the method: as §1
# [13] = target: Fuc(a1-3)[Gal(b1-4)]GlcNAc(b1-4)Gal(b1-4)[Fuc(a1-3)]GlcNAc(b1-4)Gal(b1-4)[Fuc(a1-3)]GlcNAc
# Summary of the method: as §1
# [14] = target: Fuc(a1-3)[Gal(b1-4)]GlcNAc(b1-6)[Gal(b1-3)GlcNAc(b1-3)]Gal(b1-4)Glc
# Summary of the method: as §1
# [15] = target: Fuc(a1-3)[Gal(b1-4)]GlcNAc6S
# Summary of the method: as §1
# [16] = target: Fuc(a1-3)[Gal3S(b1-4)]GlcNAc
# Summary of the method: as §1
# [17] = target: Fuc(a1-3)[Gal3S(b1-4)]GlcNAc6S
# Summary of the method: as §1
# [18] = target: Fuc(a1-3)[GalNAc(b1-4)]GlcNAc
# Summary of the method: as §1
# [19] = target: Fuc(a1-4)GlcNAc
# Summary of the method: as §1
# [20] = target: Fuc(b1-3)GlcNAc
# Summary of the method: as §1
# [21] = target: Gal(a1-2)Gal
# Summary of the method: as §1
# [22] = target: Gal(a1-3)Gal
# Summary of the method: as §1
# [23] = target: Gal(a1-3)Gal(b1-3)GlcNAc
# Summary of the method: as §1
# [24] = target: Gal(a1-3)Gal(b1-3)GlcNAc(b1-2)Man(a1-3)[Gal(a1-3)Gal(b1-3)GlcNAc(b1-2)Man(a1-6)]Man(b1-4)GlcNAc(b1-4)GlcNAc
# Summary of the method: as §1
# [25] = target: Gal(a1-3)Gal(b1-3)[Fuc(a1-4)]GlcNAc(b1-2)Man(a1-3)[Gal(a1-3)Gal(b1-3)[Fuc(a1-4)]GlcNAc(b1-2)Man(a1-6)]Man(b1-4)GlcNAc(b1-4)GlcNAc
# Summary of the method: as §1
# [26] = target: Gal(a1-3)Gal(b1-4)Glc
# Summary of the method: as §1
# [27] = target: Gal(a1-3)Gal(b1-4)GlcNAc
# Summary of the method: as §1
# [28] = target: Gal(a1-3)Gal(b1-4)GlcNAc(b1-3)GalNAc
# Summary of the method: as §1
# [29] = target: Gal(a1-3)Gal(b1-4)[Fuc(a1-3)]GlcNAc
# Summary of the method: as §1
# [30] = target: Gal(a1-3)Gal(b1-4)[Fuc(a1-3)]GlcNAc(b1-2)Man(a1-3)[Gal(a1-3)Gal(b1-4)[Fuc(a1-3)]GlcNAc(b1-2)Man(a1-6)]Man(b1-4)GlcNAc(b1-4)GlcNAc
# Summary of the method: as §1
# [31] = target: Gal(a1-3)GalNAc
# Summary of the method: as §1
# [32] = target: Gal(a1-3)[Gal(a1-4)]Gal(b1-4)GlcNAc
# Summary of the method: as §1
# [33] = target: Gal(a1-4)Gal(b1-3)GlcNAc(b1-2)Man(a1-3)[Gal(a1-4)Gal(b1-3)GlcNAc(b1-2)Man(a1-6)]Man(b1-4)GlcNAc(b1-4)GlcNAc
# Summary of the method: as §1
# [34] = target: Gal(a1-4)Gal(b1-4)Glc
# Summary of the method: as §1
# [35] = target: Gal(a1-4)Gal(b1-4)GlcNAc
# Summary of the method: as §1
# [36] = target: Gal(a1-4)Gal(b1-4)GlcNAc(b1-2)Man(a1-3)[Gal(a1-4)Gal(b1-4)GlcNAc(b1-2)Man(a1-6)]Man(b1-4)GlcNAc(b1-4)GlcNAc
# Summary of the method: as §1
# [37] = target: Gal(a1-4)Gal(b1-4)GlcNAc(b1-3)Gal(b1-4)Glc
# Summary of the method: as §1
# [38] = target: Gal(a1-4)GlcNAc
# Summary of the method: as §1
# [39] = target: Gal(a1-6)Glc
# Summary of the method: as §1
# [40] = target: Gal(b1-2)Gal
# Summary of the method: as §1
# [41] = target: Gal(b1-3)Gal
# Summary of the method: as §1
# [42] = target: Gal(b1-3)Gal(b1-4)GlcNAc
# Summary of the method: as §1
# [43] = target: Gal(b1-3)Gal(b1-4)GlcNAc(b1-2)Man(a1-3)[Gal(b1-3)Gal(b1-4)GlcNAc(b1-2)Man(a1-6)]Man(b1-4)GlcNAc(b1-4)GlcNAc
# Summary of the method: as §1
# [44] = target: Gal(b1-3)GalNAc
# Summary of the method: as §1
# [45] = target: Gal(b1-3)GalNAc(a1-3)[Fuc(a1-2)]Gal(b1-4)Glc
# Summary of the method: as §1
binder,measurement,setting,value
B1,glycan array binding signal (z-score),[1],-0.661
same,glycan array binding signal (z-score),[2],0.638
same,glycan array binding signal (z-score),[3],-0.064
same,glycan array binding signal (z-score),[4],-0.461
same,glycan array binding signal (z-score),[5],-0.666
same,glycan array binding signal (z-score),[6],-0.508
same,glycan array binding signal (z-score),[7],-0.07
same,glycan array binding signal (z-score),[8],-0.104
same,glycan array binding signal (z-score),[9],-0.237
same,glycan array binding signal (z-score),[10],-0.182
same,glycan array binding signal (z-score),[11],0.295
same,glycan array binding signal (z-score),[12],1.34
same,glycan array binding signal (z-score),[13],-0.435
same,glycan array binding signal (z-score),[14],-0.662
same,glycan array binding signal (z-score),[15],0.633
same,glycan array binding signal (z-score),[16],-0.461
same,glycan array binding signal (z-score),[17],4.09
same,glycan array binding signal (z-score),[18],-0.38
same,glycan array binding signal (z-score),[19],-0.494
same,glycan array binding signal (z-score),[20],-0.497
same,glycan array binding signal (z-score),[21],-0.488
same,glycan array binding signal (z-score),[22],-0.44
same,glycan array binding signal (z-score),[23],0.174
same,glycan array binding signal (z-score),[24],0.909
same,glycan array binding signal (z-score),[25],1.26
same,glycan array binding signal (z-score),[26],0.067
same,glycan array binding signal (z-score),[27],-0.481
same,glycan array binding signal (z-score),[28],-0.431
same,glycan array binding signal (z-score),[29],-0.568
same,glycan array binding signal (z-score),[30],-0.298
same,glycan array binding signal (z-score),[31],-0.326
same,glycan array binding signal (z-score),[32],-0.228
same,glycan array binding signal (z-score),[33],-0.249
same,glycan array binding signal (z-score),[34],0.09
same,glycan array binding signal (z-score),[35],-0.667
same,glycan array binding signal (z-score),[36],-0.565
same,glycan array binding signal (z-score),[37],-0.404
same,glycan array binding signal (z-score),[38],-0.833
same,glycan array binding signal (z-score),[39],0.298
same,glycan array binding signal (z-score),[40],0.056
same,glycan array binding signal (z-score),[41],-0.297
same,glycan array binding signal (z-score),[42],-0.29
same,glycan array binding signal (z-score),[43],0.268
same,glycan array binding signal (z-score),[44],-0.192
same,glycan array binding signal (z-score),[45],-0.465

# — the supplement of paper PMC8728848
